Assay results: article PMC12136788
The list shows a part of the results.

B1: chr10:33190432:33190433:-_ENSG00000150093_ENST00000302278|hu_mus|hu_hu_hu_mus_True|1_28 (ssRNA)
RNA: GGGAGUUCUACAGUCCGACGAUCUACAUUUUCCAAACCUGCAUGUGAAUAAAACCCUGGCCACAGAGCCCCAAAACUACCCUACUGUGACUAAGAUGCUGCUGCUGUUGCAUUCAGGUUGCAAAAUCCGCCUGAGUCAGUACUCAACAGAGGAUUGAGCAUCA
B2: chr12:39763582:39763583:-_ENSG00000139116_ENST00000544797|hu_mus|hu_hu_hu_mus_False|58_88 (ssRNA)
RNA: GGGAGUUCUACAGUCCGACGAUCCUCUAGGAACUGGGCAUUCACUUUAAAAUCUGGAGGGGGCAGCCCGUUUUUAAUUGCUAUGUGCUUUUUCUCAUCAAUACUCUUGAACAGGUGUCUAACAGCACGAGAGAUGAUGCCCUGCAACAGAGGAUUGAGCAUCA
B3: chrM:5821:5822:+_ENSMUSG00000064351_ENSMUST00000082402|mus_mus|motif|central (ssRNA)
RNA: GGGAGUUCUACAGUCCGACGAUCCUGUGUUAUGGCUGGGGGUUUCAUGUUGAUAAUAGUGGUAAUAAAAUUAAUUGCACCGGAAAUAGAUGACACUCCAGCUAAAUGAAGGGAGAAAAUUGUUAGGUCUACUGAUGCUCCUGCCAACAGAGGAUUGAGCAUCA
B4: chr7:149068622:149068623:-_ENSMUSG00000025139_ENSMUST00000001950|mus_mus|motif|central (ssRNA)
RNA: GGGAGUUCUACAGUCCGACGAUCAGACAGGUACUGAGUGAGGUUCCUGCUCUGCAGUGUCUGCAGUCUGCUGGUAACACGGAGUGGACCACUUAAGGAGGUUCUGCCUGCCUGACUCAUCCACCCUGCAAGAGGGCAUCUGCUCAACAGAGGAUUGAGCAUCA
B5: chrX:129364583:129364584:-_ENSG00000056277_ENST00000370978|hu_mus|FALSE|FALSE (ssRNA)
RNA: GGGAGUUCUACAGUCCGACGAUCAGUCUUCUGGCUUUCCUCAAUAGUUCCUUCAUGUCUUCCAUAAUAAAAAUCACUGACAAGCAUGAUCAGUUUUUCUUUAUCUGAGUCAGUGGUAGCUUUGCUUACAGCCUUUGAAUUUUCCAACAGAGGAUUGAGCAUCA
B6: chr16:32084594:32084595:-_ENSMUSG00000023791_ENSMUST00000096109|perfect_dup|motif|central (ssRNA)
RNA: GGGAGUUCUACAGUCCGACGAUCAGGAAGCAUUUAACUACAUAAAACUUAUAGGGAAAAAUGGCCAUAUUUGAAAACUGCGGCAAGGAUCAAUGUAGAGCACAGGAUUGUAAUGAGCAGAGUCACAGAACAUACUAGAGAGGUCAACAGAGGAUUGAGCAUCA
B7: 38794346_38796509_1608_CDS_ENSG00000006715_ENST00000395969|human|control|control (ssRNA)
RNA: GGGAGUUCUACAGUCCGACGAUCUUUAAUUGAAAUUUUAUCUUCAUUGUCCAAAAGCAUGUCAACAGCUUUCUCUGAAUCAAAAUCCAUUAAUAAAACAAUUUUAUCCUUGAUAGAACUGAAAAGAUUAUGCUUGUGGAUCAACAACAGAGGAUUGAGCAUCA
B8: chr17:56552419:56552420:-_ENSMUSG00000013236_ENSMUST00000086828|mus_mus|mus_mus_mus_hu_False|48_108 (ssRNA)
RNA: GGGAGUUCUACAGUCCGACGAUCAAAGUUUUUUUCUUUUAAAAAAAAUGAAAUGUCACGGGAUACAGUUACACUGAGAGUUUUAAAAAAAAAUAAGAUUCUGGUCCCAGCCCAGUGUCCCCAGGCUGCAGAGCGGGGAGGAGCCAACAGAGGAUUGAGCAUCA
B9: chr9:80921284:80921285:+_ENSG00000135069_ENST00000376588|hu_hu|FALSE|FALSE (ssRNA)
RNA: GGGAGUUCUACAGUCCGACGAUCUCCCUUGACAUCGGGUAUAAAGUCAAACUCCACACCAUGCACCGUCUCAUUUGCGCAAUAAUACACGUAGGAGGCAUCUGGGUUGAGGUUCCAGGUGCUUGGAUCUGGAAUUUUUGUAUACAACAGAGGAUUGAGCAUCA
B10: 71026498_71027082_381_CDS_ENSMUSG00000002010_ENSMUST00000052761|mouse|control|control (ssRNA)
RNA: GGGAGUUCUACAGUCCGACGAUCGUUGUUUCGAGAUUUGUGGGAUGGUGGCAGGUUAUGAUUUGUUUCAAUGUUGCCCUUCAGGGCCACACGGUUCCGGCGGAUGGCCAUGAUGGCAUUGCGGAUGUCCUCCUCAUCAGCGUUCAACAGAGGAUUGAGCAUCA
B11: 62228133_62228761_1639_CDS_ENSMUSG00000020074_ENSMUST00000020268|mouse|control|control (ssRNA)
RNA: GGGAGUUCUACAGUCCGACGAUCGCCUCCAAUGGCCAUGGCUUCAUCCUUGCCUUUCAUUCCCACUAGAAACUUAACAAGUCUAGCAGGAUGCUGAAAACCAUCACGAAGGUCUUGUGGGUCUUCAGCAAGAGCACAUGACUUCAACAGAGGAUUGAGCAUCA
B12: chr13:91842754:91842755:+_ENSMUSG00000003992_ENSMUST00000004094|mus_hu|motif|central (ssRNA)
RNA: GGGAGUUCUACAGUCCGACGAUCAUAUGUUCAAUGCAGCAAGAAUUGCUGAUAUUAUUACUGUGAGAUGACGUGUAAAAAUAACACGGGGAACAGGUAGUAUACAUCAAGACCAACACGAAUGCAUUGAUAAAGAUGGAAAACCAACAGAGGAUUGAGCAUCA
B13: chr4:136876768:136876769:-_ENSMUSG00000006699_ENSMUST00000051477|mus_mus|motif|central (ssRNA)
RNA: GGGAGUUCUACAGUCCGACGAUCAAACAACAAACGUUUGUGGGGAUUUUUGUUUUUUUUUUUAAACAAAGAAAACAAAAACGGGCACUCAUUGCUUUUCAGACAAUACAUAAUUAUUCAAAAUUAACUAUUACUGGAAGGGCACAACAGAGGAUUGAGCAUCA
B14: chr2:115890611:115890612:-_ENSMUSG00000027210_ENSMUST00000102538|mus_hu|FALSE|FALSE (ssRNA)
RNA: GGGAGUUCUACAGUCCGACGAUCCAAUAAACUCCUGGAUGUGUCGUAUAUUUAAUAUCCCAGUCCGGAUAAGAAAGUGAUCUAGGCUGAAGAUUCCUUUUUUUUUUUUCCAAACCAAAGAGACUUCUCCCAAUUCUCCAAUAUCAACAGAGGAUUGAGCAUCA

molecular target: T1, UNK ZnF1-3 (human, UniProt Q9C0B0 31-174); test: nsRBNS (natural sequence RNA bind-n-seq); RBNS binding buffer (assumed for nsRBNS): 25 mM Tris pH 7.5, 150 mM KCl, 3 mM MgCl2, 0.01% Triton X-100, 500 ug/ml BSA, 20 U/ml SUPERase-In, 4 C; UNK is unkempt and MSI1 is Musashi-1; names of the RNAs are library labels; protein concentration not given here; high values mean tight binding
T1 sequence: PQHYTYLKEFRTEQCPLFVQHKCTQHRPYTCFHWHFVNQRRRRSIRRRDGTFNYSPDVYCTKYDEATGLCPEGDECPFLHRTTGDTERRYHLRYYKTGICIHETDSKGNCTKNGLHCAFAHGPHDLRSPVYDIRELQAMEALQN

Binder	binding signal [enrichment R]
B1	1.12
B2	1.98
B3	1.77
B4	1.05
B5	0.725
B6	1.46
B7	0.856
B8	2.28
B9	0.708
B10	0.496
B11	0.684
B12	1.09
B13	0.761
B14	0.706
